{"source": "PubChem BioAssay AID938", "about": "(National Center for Advancing Translational Sciences (NCATS), 2007)", "note": "Screen size: about 73,000 compounds; about 1,800 (2.5%) were called active. This list was built around the results that the source calls inconclusive (neither active nor inactive); the mix of calls is not that of the screen. Calls follow the shape of the dose curve; as a rule, active = well fitted activation curve with a large enough effect; inconclusive = small, poorly fitted or top-dose-only effect; inactive = no such curve, though single readings can be large or run the other way. Potencies of inconclusive entries are left out as doubtful fits. Potency is read from the fitted curve at half-maximal effect; tags tell the direction and shape of the fitted curve."}
{"experiment": "qHTS Assay for Agonists of the Thyroid Stimulating Hormone Receptor: Activators of Intracellular cAMP Concentrations in Parental HEK 293; also: nearly all actives have a fitted effect of over 55% in size; as to activation: % of control where 0% means no effect", "details": "parental HEK293 CNG cAMP sensor, membrane potential fluorescence; activation: at 57.1 µM (top of the series) unless noted", "summary_of_the_method": "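Counterscreen for endogenous-receptor signalling: CNG-channel HEK 293 cells report cAMP rise by membrane depolarization. After 60 min dye equilibration with 100 uM RO 20-1724, compounds incubated 30 min before bottom-read fluorescence at 590 nm.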"}
{"smiles": "COc1nc(Nc2ccc(OC)c(Cl)c2)nc(OC)n1", "activation": "inactive: -1.54%"}
{"smiles": "COc1ccccc1C(=O)Nc1cccc(-c2cn3ccsc3n2)c1", "activation": "inactive: 7.36%"}
{"smiles": "COc1ccc(Oc2ncc3ncc(=O)n(Cc4cccc(OC)c4)c3n2)cc1", "Potency": "inconclusive [activator, full curve, poor fit]"}
{"smiles": "Cc1noc(C)c1C(=O)N1CCC2(CCN(C(=O)NC(C)C)CC2)CC1", "activation": "inactive: 3.4%"}
{"smiles": "CCCCN(Cc1ccccc1)c1ncnc2nc[nH]c12", "Potency": "inconclusive [activator, single point]"}
{"smiles": "CC(c1ccccc1)C1C(C#N)=C(N)OC2=C1C(=O)CC(C)(C)C2", "note": "(stereo unspecified)", "Potency": "inconclusive [activator, partial curve, poor fit]"}
{"smiles": "CC(C)(C)C1CCc2onc(C(=O)Nc3cnn(Cc4ccc(F)cc4)c3)c2C1", "note": "(stereo unspecified)", "Potency": "inconclusive [activator, partial curve]"}
{"smiles": "Cc1cc(OCCNCCO)cc(C)c1Cl", "activation": "inactive: -10.1%"}
{"smiles": "O=C(c1cnccn1)N1CCC[C@@]2(CCN(Cc3nccs3)C2)C1", "activation": "inactive: 4.14%"}
{"smiles": "N=C(N)c1ccc(N2CCN(C3CCN(CC(=O)O)CC3)CC2)cc1", "activation": "inactive: -10.8%"}
{"smiles": "CCOC(=O)c1c(NC(=O)CSc2nc(C)cc(C)c2C#N)sc(C(C)=O)c1C", "Potency": "inconclusive [activator, partial curve]"}
{"smiles": "Cc1c(C#N)c(N=CN(C)C)c(C(=O)c2ccccc2)n1-c1ccccc1", "Potency": "inconclusive [activator, single point]"}
{"smiles": "O=C1C=C[C@@H](O)[C@@H]2[C@H]3C(=O)N(c4ccc(F)cc4F)C(=O)[C@@H]3CC[C@@H]12", "activation": "inactive: -2.59% [at 11.4 µM]"}
{"smiles": "N#CC(C(=O)NC1CCCCC1)c1nc2ccccc2nc1N1CCOCC1", "note": "(stereo unspecified)", "activation": "inactive: 7.33%"}
{"smiles": "Cc1cccc(C)c1NC(=O)CSc1nnc(-c2ccoc2C)n1C", "activation": "inactive: 10.3%"}
{"smiles": "O=C(Nc1ccc(-c2nc3ccccc3o2)c(O)c1)c1cc(-n2cnnc2)ccc1Cl", "activation": "inactive: 29.9%"}
{"smiles": "Nc1c(C(=O)NCc2cccnc2)sc(=S)n1-c1ccccc1", "Potency": "inconclusive [activator, single point]"}
{"smiles": "Cn1nc(C(C)(C)C)cc1C(=O)NCc1ccc(N2CCCC2=O)cc1", "Potency": "inconclusive [activator, full curve]"}
{"smiles": "COC(=O)c1ccccc1NC(=O)c1ccco1", "activation": "inactive: 19.4%"}
{"smiles": "COc1ccc(S(=O)(=O)N2CN(Cc3ccco3)c3nc4ccccc4nc32)cc1", "Potency": "inconclusive [activator, partial curve]"}
{"smiles": "COc1ccc(NC(=O)N2CCCC2C(=O)Nc2ccc(C)c(Cl)c2)cc1", "note": "(stereo unspecified)", "Potency": "inconclusive [activator, single point]"}
